# Results taken from the supplement of paper PMC3334620.
# The full ranking holds about 33,000 sequences; the median of “E-score (-0.5 to 0.5)” is about -0.04, and the highest 2% start at about 0.36. The list shows a part of the results.
# Biological target: T1, Hmlalpha2 (UniProt P0CY09)
# T1 sequence: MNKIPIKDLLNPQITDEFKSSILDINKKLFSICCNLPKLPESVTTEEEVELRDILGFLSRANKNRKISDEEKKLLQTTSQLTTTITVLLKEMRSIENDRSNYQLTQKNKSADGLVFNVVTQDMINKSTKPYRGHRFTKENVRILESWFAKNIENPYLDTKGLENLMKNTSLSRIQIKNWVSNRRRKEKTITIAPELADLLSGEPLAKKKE
# Test: PBM E-score (8-mer binding enrichment) (E-score (-0.5 to 0.5)); higher = stronger / more preferred TF binding; most listed sequences are background and not binding sites
# Conditions: protein concentration: 200 nM; construct: GST-full length
# Procedure, shortened: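 Universal all-10-mer Agilent arrays, fresh or stripped once, were converted to double-stranded form by primer extension. GST-tagged yeast transcription factors from PURExpress in vitro transcription/translation, full-length or DNA-binding domain only, were applied at about 100-200 nM and detected with fluorescent anti-GST. After masliner normalisation, the Universal PBM Analysis Suite scored each ungapped eight-base word together with its reverse complement by E-score.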
row,Sequence,PBM E-score
1,AATGATCA,0.0844
2,GCATTCGC,-0.124
3,ATTGGCTC,-0.0268
4,ATCGGGGG,-0.434
5,CGAAGGTC,-0.346
6,ACGCCCTC,-0.0261
7,GCGAAAGA,-0.0935
8,AGCGAAAT,-0.0407
9,GAATACAA,0.352
10,GACAAAAA,0.0289
11,CGTTGCGC,-0.00136
12,ATGAATTA,0.178
13,CCTACGTC,-0.133
14,ATCAGTCG,0.0621
15,CATTAACC,0.128
16,ACTGTTCT,-0.0672
17,ATTCACTC,0.145
18,AAAACCAA,0.147
19,CATTCCCG,-0.19
20,GGGGAGTA,-0.225
21,ATACTTGG,-0.152
22,ATCTATGG,-0.335
23,AATGGGTG,-0.0978
24,ACGAGACA,-0.0493
25,AAAGGCCG,-0.212

row,Sequence,PBM E-score
1,GTGTCAAA,0.382
2,GGCAGTAC,0.0805
3,CCATTGGG,-0.227
4,ATTTCAAG,0.099
5,GCCGGTAC,-0.0163
6,AAGAGAGA,-0.0152
7,GCGCATCC,-0.0678
8,GTATACAA,0.291
9,CAGTACAA,0.127
10,AAAAGCTT,0.115
11,ACATGTCC,0.351
12,AATCTCAC,-0.104
13,GTACGGGA,-0.121
14,CAGTGATA,-0.0336
15,AATTCCAG,0.0676
16,AATTTAAG,0.0542
17,CATCCTCA,-0.0355
18,CTGCTCAC,-0.0448
19,CTGTCAAC,0.198
20,GAACTGTA,0.112
21,GGCATCAA,-0.165
22,CAAATAGG,-0.00423
23,CCATCACG,0.00264
24,GTAGTGCA,0.0993
25,ACACGACC,0.396

row,Sequence,PBM E-score
1,AGACTTGG,-0.207
2,CATCTCGA,-0.0276
3,CCGGCCTC,-0.221
4,GCCGGTAA,0.0399
5,ATAGTTCC,-0.0756
6,AACTAACT,-0.0445
7,CAAATTCG,-0.179
8,GCAGAACC,-0.038
9,TCAAAAGA,-0.133
10,ACCTGCGA,-0.062
11,AATTTGTA,0.258
12,TAGCTCGA,-0.0496
13,CCTTCTGC,-0.354
14,ACCAACGC,0.0354
15,AGGATAAA,0.0806
16,AATTCGCG,0.123
17,AGGAAACA,0.151
18,GTATTCTA,0.27
19,ATTGTTAG,0.0804
20,CTGATGGC,-0.211
21,AATCAGCA,0.159
22,ACAACATA,0.382
23,GACGACCA,-0.102
24,AACGCTCA,0.0165
25,CCTGCCCC,-0.338

row,Sequence,PBM E-score
1,CCACTTAG,-0.0026
2,CTATTATC,0.113
3,CTCTAAGA,-0.0651
4,GACTCAAA,-0.114
5,CAATCTGC,-0.0469
6,CAGCGTCC,-0.0516
7,GATGAGTA,0.203
8,CAAACACC,-0.0563
9,ATTCCGGC,-0.07
10,GTGGCTGA,-0.248
11,GTAGGGAA,0.0519
12,GTCTTACA,0.347
13,ACAGCTTC,-0.0584
14,CAAAACCA,0.0675
15,ATAAGTGC,-0.201
16,GAATCTTA,-0.127
17,AAAACCTG,-0.037
18,GATTCACA,0.215
19,GTCTCAAA,-0.0447
20,CCCTCGTC,-0.218
21,CGTCCTGA,-0.218
22,CTCAAAAC,0.0559
23,CGGGATGA,-0.211
24,CAGTTTAG,-0.0949
25,CAAACCTC,-0.185

row,Sequence,PBM E-score
1,AGAGTCGG,-0.129
2,TCTACGCA,0.353
3,GAACTCGA,-0.0139
4,AGAAAAGA,-0.0803
5,CACCAATG,-0.0695
6,AACCCGTG,-0.114
7,AACTTGCC,0.0815
8,CGAAGTTC,-0.0934
9,AAAAATCT,0.145
10,AATAGTGG,0.14
11,TCTAAGCA,-0.0643
12,GGATGTGA,0.0213
13,GCAACCGA,-0.29
14,GAACCCGC,-0.25
15,AACGAGGA,0.0594
16,AGAGTTAA,0.166
17,CGGTCGGC,-0.275
18,GGAATTCC,-0.383
19,ATAATCCC,-0.0295
20,AAGTCACG,-0.162
21,ATAACCAA,0.0665
22,CAAAATCC,0.0149
23,AGCCACAA,-0.138
24,AGTTTAGC,-0.056
25,CAGTTTAC,0.231

row,Sequence,PBM E-score
1,AATGCACG,0.171
2,GACCTCGC,-0.148
3,GAAGACAC,0.0337
4,CCGATGGA,-0.256
5,CGTTTAAA,0.258
6,ATGCGTTA,0.326
7,ATACGGAG,-0.0902
8,ATTTCGAG,0.00649
9,CGTAGTAG,0.0765
10,AATAGCAA,0.165
11,CGTAGCGC,-0.195
12,GAATCGCA,-0.172
13,GCTTCTTA,0.0403
14,ACCGATAC,-0.0475
15,ACAAGACA,0.3
16,AGGGGCAG,-0.228
17,AAAAGCAA,0.197
18,ATTGGTAG,0.0446
19,ATCCCGAC,0.00533
20,GGTAAGTA,0.162
21,GCCGTAGA,0.065
22,CCTGACTA,0.191
23,TGAAGCAA,0.0475
24,ATAATCTC,0.0435
25,ATGCCTAC,-0.224

row,Sequence,PBM E-score
1,GTTTGTCA,0.118
2,AGAATTAG,-0.0744
3,AATCGAGA,-0.0158
4,ATCGTTAG,0.00138
5,CCGCGCTC,-0.0506
6,AACCTGCT,-0.164
7,CATTTACG,0.303
8,GGTCTTTA,0.161
9,ATGCGAAC,0.0438
10,CCGCGAAG,-0.274
11,AATTGTAG,0.0979
12,AAAAGCGG,-0.174
13,AGTGTCCA,0.0827
14,CGACGCCA,-0.124
15,AAGACAGG,0.00086
16,ACCTCGAT,-0.157
17,GAGAGTCC,-0.394
18,CTTTATGA,-0.0961
19,AAATAAAG,-0.0863
20,ATCACGAA,0.0229
21,AGCACAGG,-0.115
22,CGACTAAA,-0.141
